# Data: the supplement of paper PMC12632987
# In all, about 2,300 sequences were measured (“median log2 fold change of GCK-ALFA target abundance (FLAG IP / Myc IP barcode read proportion)”: median about 0.095, lowest 2% from about -0.47 on). The list shows a part of the results.
# B1: LC3A_141_362 (protein)
# chain: AVKKKTYTYTATTYDEALKVAEEIGKEIKKFMEETGAEEVKVTVTITSYNEKTGEVTTETDTYTVTKENLDLFIEGLEIDLLSAFDKGADKIVVKVTIET
# B2: LC3A_45_1981 (protein)
# chain: MYLATVDVLVPRELAEEAYAAARAAADELEARYGDRVRVDRAALDESYAATKDEEDVYLRVEIYAPDKQLALDAADELVDRLEAALGDRVAAIISVEEVP
# B3: LC3A_13_350 (protein)
# chain: TVEIEVSTAEELREKVGAAIAAHPGETIRVTVTIENEEEADELAEAAKEVMREAAAAGNRLEITFVGPRELVNYAAVELGSFIFEHLDELDVDVHTEESP
# B4: LC3A_127_206 (protein)
# chain: KEKELLKKAEKLAEKAEEAVDKIPKEGEKAREEAIKLLEELAKLLKQIPSLKEALEDTEQAIKLLKETAKLSPAEREETIEQISQIISGILIEIESELLK
# B5: LC3A_28_1204 (protein)
# chain: SKTREAAERALEEAERLLEEGKEGVIVLKVEGEISEEETEYVIEALERIAELAAESGKISIILDIDGEVPEEHANKLIDKADELEEKYPNVNIIIALEER
# B6: LC3A_28_683 (protein)
# chain: SETDESIEKALKKAKEALEKGKPEVIEIKVSGDTTEEELEKILEALEEIAEIANKVPGSAIIIDIDADLPQEFRDKLIDKAEELEEKYPNVTIIFALEER
# B7: LC3A_3_1746 (protein)
# chain: MEETLERIRERLKELGFSEEVIEKALEVAKALLERGFEEAVKTLLEELEELKDVPDEILLAMLEDILDYVKSNDINEEEAIEKIKEEARIARNEAEIEEL
# B8: LC3A_36_1341 (protein)
# chain: MKVIVATAEEEDIKKAAEQANKEGADLEVVFTPETTVEEIRKALELVLELSKNISNIIIDLDAETEEELLKKLKVASEVADKIEKENGKNVIIAYDVVEP
# B9: LC3A_free_46_2402 (protein)
# chain: YRAEILIDALAETREKAEALAEDLEKAAREIAEKHGARVEIKVKIEELPDGSYFVEIEIVLEAETREALEAAVNELIDRFEEIAKKYNAAMIISYEISEL
# B10: LC3A_28_801 (protein)
# chain: SETRESAERAREEARELIARGEEVVVEIEISADATQEEIDYVNETIREMARLAKEAGIPRLYVVVDSPDNQEIITAVSETEDRMRAEGLPVSVIIAIDEP
# B11: LC3A_45_1944 (protein)
# chain: MAEATVSVLVPREKFEEALAVLKEAAAEIAAERGLEVEIDEAAVEAAREEAEREGEGLLEVTVKSENLQDALDAAVEIADRLEEELGPEVAVAIAIEEIP
# B12: LC3A_3_1652 (protein)
# chain: MEEEKKKLLEYLKKKGKSEEVLKAVEEALNALIEKGYYEAAKTFIELLKELEDLSDELLLELAEEVLELVETSDLSPEELKKKIEEIAKTIKNEGEIIEL
# B13: LC3A_28_663 (protein)
# chain: SAIDARIAAALAEAEAGRAAGEPVVVTLEVPGDADEADIERIIAALERIAEILAPIKGSAIIVDIDGDLDPEHEQRLIDRAEELEKRYPNVTVIIARDER
# B14: LC3A_3_1594 (protein)
# chain: MAALVEEQLARLRAAGASPAVLAAARRVLEALAARGYERAMETLTEELLRLRDAPTELLVAMLEELLAIVETEDLSEEEVIEEIEELARLARNEAEIEEL
# B15: LC3A_3_1362 (protein)
# chain: MEELIEETLAFLREQGKSEETLEAVRETLEALRERGYERAAETFVALLRELADLPDELLLAFAEDVLRAVTEEDLSEEELIAYIESEAAVARSEAEIEEL
# B16: LC3A_free_8_2517 (protein)
# chain: MNQEFAARATEILDELEEEVVAYLKSKGASELDILEAELLIGAAIADVISLADKSPEEQLAAIEEDLAELVEELAEHREEVAAMAEAALARIRAAQAELA
# B17: LC3A_free_39_2198 (protein)
# chain: SEEERQKYIEELLKLAAEEGEEAEKLARELIELMGNKLEYVKELLELVKKAKEEGVDVLELLKEALELAKKLKEEGKSVEEIAKAVLELIQDRINLIPID
# B18: LC3A_free_0_2112 (protein)
# chain: MEKYRLEIVIKIKGKTEELAEKAAEEIVKRAKELAAKYGAEVEVKITDIDGTGEKVVEIVVSGLTLDQAVALERELIAEAEEIAKKYGVEVDIYTGIERL
# B19: LC3A_147_508 (protein)
# chain: YKVVITIDLIVKNKVEEIKKKFEELVKELKEKGYEVELEIKVEKIDENTYYVNVTITIKTETKEEAEEAKNLALDLIDKIEEELKDDILGSLISSEIIEE
# Molecular target: MAP1LC3A, Q9H492
# Assay: median log2 fold change of GCK-ALFA target abundance (FLAG IP / Myc IP barcode read proportion) (log2 ratio); each designed protein is fused to an ALFA-tag nanobody in HEK293 cells to bring the named protein to FLAG-tagged glucokinase (GCK); Myc marks an untargeted standard; higher = target protein stabilised (more abundant)
# Conditions: target protein: 3xFLAG-MCP-GCK-ALFA reporter; HEK293 landing pad (RPLP)
# Outline: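 HEK293 landing-pad cells received a recombined binder library fused to the ALFA nanobody and were induced with 2 μg mL^−1 doxycycline, then transfected with a plasmid encoding a FLAG-tagged target and a Myc-tagged standard. Lysates were collected after 48 h for anti-FLAG and anti-Myc immunoprecipitation, and the circular RNA barcodes were reverse transcribed, amplified and sequenced. Target abundance for each binder is the median log2 ratio of FLAG to Myc barcode read proportions. Barcodes had to reach a proportion of at least 10^−7 in both replicates, each binder needed at least 3 barcodes per replicate, a pseudocount of 10^−6 was applied, and the two replicates were pooled.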
row,Binder,median log2 fold change
1,B1,-0.96
2,B2,-0.0815
3,B3,0.141
4,B4,0.148
5,B5,-0.12
6,B6,-0.521
7,B7,0.198
8,B8,0.0374
9,B9,-0.232
10,B10,0.207
11,B11,-0.198
12,B12,0.283
13,B13,0.0762
14,B14,-0.0195
15,B15,0.0647
16,B16,-0.0612
17,B17,0.377
18,B18,0.175
19,B19,0.121
